# Laboratory results reported in publication PMC4336329 (PLoS ONE, 2015).
# In all, about 310,000 compounds went through this assay and about 14,000 (4.5%) showed an effect of 50% or more. The effect is printed as a negative number. This is one part of the list.
# Target: human ether-à-go-go-related gene (hERG) potassium channel (human, UniProt Q12809)
# Assay: primary screen, population patch clamp on CHO cells stably expressing hERG
# 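Further: peak tail current of the secondary pulse compared with the same well before compound.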
# Chain of human ether-à-go-go-related gene (hERG) potassium channel (Q12809 whole entry, looked up): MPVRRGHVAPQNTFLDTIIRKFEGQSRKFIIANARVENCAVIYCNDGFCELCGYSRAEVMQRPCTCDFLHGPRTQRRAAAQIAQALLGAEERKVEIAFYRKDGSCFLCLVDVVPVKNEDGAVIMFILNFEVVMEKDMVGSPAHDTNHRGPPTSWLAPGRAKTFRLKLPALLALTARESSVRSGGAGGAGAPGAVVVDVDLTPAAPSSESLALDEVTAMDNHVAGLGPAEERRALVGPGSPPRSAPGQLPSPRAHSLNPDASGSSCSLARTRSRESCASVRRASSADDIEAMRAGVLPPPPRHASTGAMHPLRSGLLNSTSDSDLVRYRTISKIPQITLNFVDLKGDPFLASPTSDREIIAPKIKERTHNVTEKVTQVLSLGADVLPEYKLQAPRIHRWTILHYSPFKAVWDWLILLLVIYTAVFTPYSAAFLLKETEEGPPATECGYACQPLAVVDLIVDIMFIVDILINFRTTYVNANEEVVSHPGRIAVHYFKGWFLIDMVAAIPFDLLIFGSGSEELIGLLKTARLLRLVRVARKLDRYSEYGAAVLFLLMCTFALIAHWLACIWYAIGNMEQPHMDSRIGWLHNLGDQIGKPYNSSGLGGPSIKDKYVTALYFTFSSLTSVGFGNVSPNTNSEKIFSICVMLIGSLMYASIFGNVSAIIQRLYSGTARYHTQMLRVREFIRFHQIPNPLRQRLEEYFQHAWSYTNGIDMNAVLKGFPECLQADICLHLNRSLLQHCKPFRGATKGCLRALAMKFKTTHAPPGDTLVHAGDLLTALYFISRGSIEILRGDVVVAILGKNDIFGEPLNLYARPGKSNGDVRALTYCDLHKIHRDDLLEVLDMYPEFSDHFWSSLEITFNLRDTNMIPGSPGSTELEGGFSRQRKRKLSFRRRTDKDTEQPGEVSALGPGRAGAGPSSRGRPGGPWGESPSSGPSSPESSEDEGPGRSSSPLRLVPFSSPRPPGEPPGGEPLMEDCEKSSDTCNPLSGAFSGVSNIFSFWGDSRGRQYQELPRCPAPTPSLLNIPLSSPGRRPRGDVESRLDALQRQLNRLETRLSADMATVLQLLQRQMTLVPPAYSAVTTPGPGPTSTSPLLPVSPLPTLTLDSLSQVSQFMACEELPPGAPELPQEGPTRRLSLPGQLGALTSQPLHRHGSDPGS
row,Structure (SMILES),"hERG current change (%, negative = inhibition) at 10uM [%]"
1,CSc1ncc(CN2CCN(C3CCCC3)C(CCO)C2)cn1 (stereo not drawn),-0.478
2,COc1ccnc(Oc2ccccc2)c1-c1ncn[nH]1,15.1
3,CN(CC(=O)NCc1ccccc1)Cc1ccc(Cl)cc1,-22.9
4,CC(c1nc2ccccc2n1Cc1ccccc1)N1CCCCC1 (stereo not drawn),-65
5,CCOC(=O)c1ccc(NC(=O)CCc2nc(-c3ccccc3Cl)no2)cc1,12.2
6,COc1ccccc1S(=O)(=O)N1CCC(C(=O)O)(c2ccccc2)CC1,13.4
7,Cc1ccc(CN=c2c([N+](=O)[O-])nn(-c3ccc(Cl)cc3)n2O)cc1,-14.7
8,COc1cc(NS(=O)(=O)c2ccc(NC(=S)NC(=O)c3ccco3)cc2)nc(OC)n1,-4.76
9,COC(=O)COc1ccc(/C=C2\SC(=O)N(CC(=O)Nc3ccccc3F)C2=O)cc1,14
10,Cc1cc(NC(=O)OC(C)C)ccc1-c1ccc(NC(=O)OC(C)C)cc1C,16.5
11,CCNS(=O)(=O)c1cc(OC)ccc1OC,5.41
12,Cc1ccc(NC(=O)CCC(=O)NNC(=S)Nc2ccccc2)c(C)c1,12.4
13,Cc1cccc(C)c1NC(=O)C1CCN(S(C)(=O)=O)CC1,3.64
14,O=C(O)c1ccccc1NCc1cccnc1,9.99
15,Cc1c(Cl)ccc(S(=O)(=O)N2CCN=C2c2ccccc2)c1Cl,0.0154
16,CCc1c(-c2ccccc2)nc2sc3c(c2c1N)CCCC3,13.6
17,COc1ccc(NC(=O)CN2C(=O)COc3ccc(S(=O)(=O)N4CCOCC4)cc32)c(OC)c1,10.3
18,COc1cccc(NC(=O)Nc2nnc(Cc3ccc(F)cc3)s2)c1,19
19,COc1ccccc1Nc1nc(N)nc(CSC(=S)N2CC(C)CC(C)C2)n1 (stereo not drawn),-9.46

row,Structure (SMILES),"hERG current change (%, negative = inhibition) at 10uM [%]"
1,CCC/C=N/NC(=O)c1[nH]c2c([N+](=O)[O-])cccc2c1C,0.591
2,O=C(CC1SC(=O)N(Cc2ccccc2)C1=O)Nc1nccs1 (stereo not drawn),3.22
3,Clc1ccc(COc2ccccc2-c2ccnc3ncnn23)cc1,-21.4
4,Cc1ccc(C)c(CN2CCC(n3nccc3NC(=O)C3CCCC3)CC2)c1,-69.9
5,CC1(C(=O)NC2CCCCC2)CCC(=O)N1Cc1ccc2c(c1)OCO2 (stereo not drawn),-5.82
6,O=C1CCN(S(=O)(=O)c2ccccc2)CCN1CCOCc1ccccc1,5.32
7,COC(=O)c1cn(C(=O)c2ccco2)c2ccccc12,3.16
8,O=C(/C=C/c1ccccc1)N1CCN(c2c(Cl)cccc2[N+](=O)[O-])CC1,-20.8
9,CCOC(=O)N1CCN(C(=O)C2CCCN(S(=O)(=O)c3ccc(OCC)cc3)C2)CC1 (stereo not drawn),-46.2
10,CN1CC2([N+](=O)[O-])CC=C(Cl)C([N+](=O)[O-])(C1)C2 (stereo not drawn),16.2
11,COc1ccccc1C/C(N)=N/OC(=O)/C=C/c1ccccc1,-21.2
12,CCCCN1C(=O)C(O)(CC(=O)c2c(C)coc2C)c2ccccc21 (stereo not drawn),3.63
13,O=C(c1ccccc1)N1CCN(C(=O)c2cccnc2)CC1,9.88
14,N/N=C(\Cc1cscn1)c1ccc(O)cc1O,8.19
15,COC(=O)[C@H](C)NC(=O)NCc1ccccc1F,8.53
16,CC(C)c1ccc(-c2nnn(Cc3nc4ccccc4s3)n2)cc1,9
17,Cc1nn(Cc2ccccc2)c(C)c1C(=O)OCC(=O)c1cc(C)n(CC(F)(F)F)c1C,-2.57
18,FC(F)(F)c1cc(-c2ccccc2)nc2nc(N3CCOCC3)sc12,-4.29
19,COc1ccc(Cn2ccnc2SCC(=O)Nc2cccc(NC(C)=O)c2)cc1,16.6

row,Structure (SMILES),"hERG current change (%, negative = inhibition) at 10uM [%]"
1,Clc1ccc(OCCNCCc2ccccc2)cc1.O=C(O)C(=O)O,-73.7
2,CCOC(=O)c1c(NC(=O)COC(=O)/C=C/c2ccccc2)sc(C(=O)NC)c1C,10.2
3,CSc1nsc(SCC(=O)N2CCc3ccccc32)n1,13.4
4,CCCCCCOc1ccc(/C=c2\s/c(=C(/C#N)C(=O)NCc3ccco3)n(-c3ccccc3)c2=O)cc1,12.6
5,Cc1csc(=O)n1CCC(=O)OCC(=O)Nc1ccc(C(N)=O)cc1,12.4
6,Cc1ccc2cc(C#N)c(N3CCCN(C(=O)C4CCCO4)CC3)nc2c1C (stereo not drawn),-32.4
7,O=[N+]([O-])c1cccc(/C=N/N2CCN(Cc3ccc(Cl)cc3)CC2)c1,5.85
8,Cc1cccc(C)c1OCc1cc(C(=O)N(C)Cc2cc(C3CC3)n[nH]2)no1,-43
9,COc1cnc(-c2ccccc2)nc1Oc1cccc(C)c1C,-0.114
10,Cc1cccc(C(=O)Oc2ccc(/C=N/NC(=O)c3ccc(O)cc3)cc2)c1,28.6
11,Cc1c(C(=O)NCCCn2ccnc2)oc2ccccc12,10.4
12,CCCCCNC(=O)C(C)Sc1ccc(Cl)cc1 (stereo not drawn),10.9
13,C[N+](C)(C)C(Cc1ccccc1)C(=O)[O-] (stereo not drawn),10.2
14,CN(CC1CCCO1)S(=O)(=O)c1ccc(C(=O)Nc2ccc([N+](=O)[O-])cc2)cc1 (stereo not drawn),-22.2
15,N#CCCN(C(=O)COC(=O)Cc1ccc(Br)cc1)c1ccccc1,-14.1
16,CCc1nc(SCc2ccc([N+](=O)[O-])cc2)n[nH]1,-7.6
17,O=C(Nc1nnc(COc2ccc(F)cc2)s1)c1ccco1,-4.54
18,Cc1cccc(C)c1NC(=O)COC(=O)c1ccc([N+](=O)[O-])o1,11.5
19,COC(=O)c1c(-c2ccccc2OC)sc2ccccc12,4.01
